No constants are given. Whether binding was seen depends on the method and setting. In cells and extracts the contact can be indirect. Some entries that bind do so weakly or less than the wild type. Sequences can lack the tags named with a protein.
What was measured:
[1] = target: T1, HA-tagged full-length (FL) ZXDA, transfected in HEK293T cells (human) (UniProt P98168); assay: co-IP; HA-tagged ZXDA immunoprecipitated with anti-HA beads from whole-cell lysates of transfected HEK293T cells treated with MLN4924 for 6 h; immunoblot
T1 sequence: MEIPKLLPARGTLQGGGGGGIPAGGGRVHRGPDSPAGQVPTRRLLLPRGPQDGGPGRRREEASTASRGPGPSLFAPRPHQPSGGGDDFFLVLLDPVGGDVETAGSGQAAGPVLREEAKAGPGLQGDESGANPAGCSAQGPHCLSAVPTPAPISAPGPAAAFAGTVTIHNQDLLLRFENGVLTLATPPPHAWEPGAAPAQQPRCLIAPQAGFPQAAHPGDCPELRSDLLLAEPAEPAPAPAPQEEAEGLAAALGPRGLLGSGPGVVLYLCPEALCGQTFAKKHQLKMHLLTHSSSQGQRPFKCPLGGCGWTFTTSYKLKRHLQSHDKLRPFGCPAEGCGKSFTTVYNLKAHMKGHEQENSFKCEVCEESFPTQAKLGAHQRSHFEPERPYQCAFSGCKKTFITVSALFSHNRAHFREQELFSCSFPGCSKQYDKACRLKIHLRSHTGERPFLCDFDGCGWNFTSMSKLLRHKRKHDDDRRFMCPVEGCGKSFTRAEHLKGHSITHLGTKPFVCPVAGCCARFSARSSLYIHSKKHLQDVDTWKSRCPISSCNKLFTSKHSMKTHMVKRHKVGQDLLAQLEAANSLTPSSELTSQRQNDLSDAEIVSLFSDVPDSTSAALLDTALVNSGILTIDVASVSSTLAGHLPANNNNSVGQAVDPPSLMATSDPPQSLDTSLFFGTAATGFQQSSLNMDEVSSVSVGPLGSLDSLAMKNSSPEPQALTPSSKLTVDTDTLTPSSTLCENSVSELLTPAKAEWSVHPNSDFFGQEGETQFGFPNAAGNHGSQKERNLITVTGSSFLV

[2] = target: T2, SF-tagged DEDD2, transfected in HEK293T cells (UniProt Q8WXF8); assay: co-IP; SF-tagged bait affinity-purified on Strep-Tactin Sepharose from whole-cell lysates of transfected HEK293T cells (150 mM NaCl, 50 mM Tris pH 7.5, 0.4% Triton X-100, Benzonase), desthiobiotin elution, immunoblot; MLN4924 before collecting where indicated
T2 sequence: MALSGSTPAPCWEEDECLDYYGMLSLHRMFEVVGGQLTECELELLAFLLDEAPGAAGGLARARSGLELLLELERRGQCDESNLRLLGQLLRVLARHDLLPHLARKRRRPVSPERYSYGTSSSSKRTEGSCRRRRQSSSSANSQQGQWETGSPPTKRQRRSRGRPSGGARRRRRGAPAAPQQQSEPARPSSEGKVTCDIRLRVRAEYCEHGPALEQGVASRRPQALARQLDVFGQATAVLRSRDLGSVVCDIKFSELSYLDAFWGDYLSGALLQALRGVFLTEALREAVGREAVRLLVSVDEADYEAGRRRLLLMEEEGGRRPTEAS

[3] = target: T3, StrepII-FLAG-tagged wild-type FBXO38 (SF-FBXO38 WT), transfected in HEK293T cells (human) (UniProt Q6PIJ6); assay: as above
T3 sequence: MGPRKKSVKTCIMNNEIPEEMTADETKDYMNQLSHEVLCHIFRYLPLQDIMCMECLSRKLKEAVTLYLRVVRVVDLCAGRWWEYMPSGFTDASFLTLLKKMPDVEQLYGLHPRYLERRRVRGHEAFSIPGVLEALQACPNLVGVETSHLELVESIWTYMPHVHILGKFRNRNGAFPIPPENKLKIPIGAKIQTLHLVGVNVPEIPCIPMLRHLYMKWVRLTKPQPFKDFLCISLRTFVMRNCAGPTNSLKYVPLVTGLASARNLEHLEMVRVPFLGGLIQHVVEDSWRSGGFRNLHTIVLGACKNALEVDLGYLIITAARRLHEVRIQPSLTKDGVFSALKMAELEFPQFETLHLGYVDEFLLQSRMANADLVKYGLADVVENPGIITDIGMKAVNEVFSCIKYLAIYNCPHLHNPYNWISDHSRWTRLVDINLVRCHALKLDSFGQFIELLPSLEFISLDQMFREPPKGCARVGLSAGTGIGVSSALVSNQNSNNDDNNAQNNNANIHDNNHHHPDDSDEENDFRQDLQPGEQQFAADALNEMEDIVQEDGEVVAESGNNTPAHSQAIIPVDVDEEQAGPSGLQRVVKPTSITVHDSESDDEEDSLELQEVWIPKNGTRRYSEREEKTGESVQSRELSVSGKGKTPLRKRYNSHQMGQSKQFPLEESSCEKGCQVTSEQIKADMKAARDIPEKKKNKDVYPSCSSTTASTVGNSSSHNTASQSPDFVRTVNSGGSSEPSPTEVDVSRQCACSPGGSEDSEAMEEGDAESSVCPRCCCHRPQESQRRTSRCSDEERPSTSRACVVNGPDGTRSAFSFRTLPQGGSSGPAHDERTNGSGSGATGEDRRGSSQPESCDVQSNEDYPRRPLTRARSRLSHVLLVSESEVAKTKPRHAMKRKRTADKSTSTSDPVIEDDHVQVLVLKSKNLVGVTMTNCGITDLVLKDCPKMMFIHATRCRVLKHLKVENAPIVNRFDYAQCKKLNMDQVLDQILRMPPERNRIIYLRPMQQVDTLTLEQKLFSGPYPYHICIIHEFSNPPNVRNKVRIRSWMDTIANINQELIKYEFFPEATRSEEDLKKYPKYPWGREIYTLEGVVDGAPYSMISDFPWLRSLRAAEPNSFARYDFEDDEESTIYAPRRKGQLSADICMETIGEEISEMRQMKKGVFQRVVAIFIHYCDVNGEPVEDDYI

- binding [1]: binds
- binding [2]: no binding
- binding [3]: no binding
B1: centromere protein B (CENP-B), endogenous in HEK293T cells (protein, UniProt P07199 1-599)
chain: MGPKRRQLTFREKSRIIQEVEENPDLRKGEIARRFNIPPSTLSTILKNKRAILASERKYGVASTCRKTNKLSPYDKLEGLLIAWFQQIRAAGLPVKGIILKEKALRIAEELGMDDFTASNGWLDRFRRRHGVVSCSGVARARARNAAPRTPAAPASPAAVPSEGSGGSTTGWRAREEQPPSVAEGYASQDVFSATETSLWYDFLPDQAAGLCGGDGRPRQATQRLSVLLCANADGSEKLPPLVAGKSAKPRAGQAGLPCDYTANSKGGVTTQALAKYLKALDTRMAAESRRVLLLAGRLAAQSLDTSGLRHVQLAFFPPGTVHPLERGVVQQVKGHYRQAMLLKAMAALEGQDPSGLQLGLTEALHFVAAAWQAVEPSDIAACFREAGFGGGPNATITTSLKSEGEEEEEEEEEEEEEEGEGEEEEEEGEEEEEEGGEGEELGEEEEVEEEGDVDSDEEEEEDEESSSEGLEAEDWAQGVVEAGGSFGAYGAQEEAQCPTLHFLEGGEDSDSDSEEEDDEEEDDEDEDDDDDEEDGDEVPVPSFGEAMAYFAMVKRYLTSFPIDDRVQSHILHLEHDLVHVTRKNHARQAGVRGLGHQS
